{
  "source": "PubChem BioAssay (NCI)",
  "assay_in_all_cases": "growth of human tumour cells (NCI), 48 h",
  "key": {"HOP-62 NSCLC": {"test_system": "HOP-62 NSCLC"}, "TK-10 renal": {"test_system": "TK-10 renal"}, "MCF7 breast": {"test_system": "MCF7 breast"}, "ACHN renal": {"test_system": "ACHN renal"}},
  "note": "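These data come from cells grown in 96-well plates and exposed to compound for 48 hours at five concentrations. Here, GI50 denotes the concentration required for 50% inhibition of growth.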 For part of its entries the source gives two or more results. The list is limited to them. The source may hold further records. For some of these results: A record mostly stands for its own series of concentrations, not given here; some values may only mark the edge of a range. For some of these results: Values given together repeat one measurement across runs, samples, wells, individuals or studies. What stands in brackets tells the records apart. The letters are not those of the source and start again with each entry.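 The concentration for full growth arrest is given as TGI.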",
  "data": [
    {"compound": "O=C(O)Cc1cccc2c(=O)cc(-c3ccccc3)oc12", "values": [
      {"measurement": "GI50", "setting": "HOP-62 NSCLC", "result": "17.9 µM [1 test] and > 916 µM [mean of 4 tests]"}
    ]},
    {"compound": "O=C1c2ccccc2-c2c3c(cc4ccnc1c24)OCO3", "values": [
      {"measurement": "TGI", "setting": "TK-10 renal", "result": "9.71 µM [sample A, 1 test] and > 100 µM [sample B, 1 test]"}
    ]},
    {"compound": "Cn1ncc(Cl)c1-c1cc(C(=O)N[C@H](CN)Cc2cccc(F)c2)sc1Cl", "values": [
      {"measurement": "GI50", "setting": "MCF7 breast", "result": "58 nM [sample A, mean of 2 tests] and 640 nM [sample B, mean of 2 tests]"}
    ]},
    {"compound": "Cc1c(CN2CCN(C(=O)[C@H](C)O)CC2)sc2c(N3CCOCC3)nc(-c3cnc(N)nc3)nc12", "values": [
      {"measurement": "TGI", "setting": "ACHN renal", "result": "> 8.92 µM [sample A, mean of 2 tests] and 869 nM [sample B, 1 test]"}
    ]}
  ]
}
